# The list shows a part of the results. The full chains were built here from the parent and the listed change. Values near 0.05 are background.
# B1: TEV protease; numbered along this chain (parent)
# chain: MGESLFKGPRDYNPISSSICHLTNESDGHTTSLYGIGFGPFIITNKHLFRRNNGTLVVQSLHGVFKVKDTTTLQQHLVDGRDMIIIRMPKDFPPFPQKLKFREPQREERICLVTTNFQTKSMSSMVSDTSCTFPSGDGIFWKHWIQTKDGQCGSPLVSTRDGFIVGIHSASNFTNTNNYFTSVPKNFMELLTNQEAQQWVSGWRLNADSVLWGGHKVFMVKPEEPFQPVKEATQL
# Variants of: B1
# Assay: raw area under fraction-flipped curve 0-4 h after induction (AUC4h, not background-subtracted), DNA-recorder readout of cleavage of the substrate (dimensionless); higher = more cleavage of the substrate by the protease variant
# Settings: temperature: 34 °C; time window: 0-4 h after rhamnose induction
# 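Also: Bxb1 expression induced with 0.2% (w/v) L-rhamnose at OD600 near 0.5, cultures sampled hourly, flipped fraction per protease–substrate barcode pair counted by paired-end Illumina sequencing.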
Variant,area with substrate ENLYFCS,area with substrate ENLYFDS,area with substrate ENLYFES,area with substrate ENLYFFS,area with substrate ENLYFHS,area with substrate ENLYFIS,area with substrate ENLYFKS,area with substrate ENLYFMS,area with substrate ENLYFNS,area with substrate ENLYFPS,area with substrate ENLYFRS,area with substrate ENLYFTS,area with substrate ENLYFYS,area with substrate ENLYFLS,area with substrate ENLYFSS,area with substrate ENLYFVS,area with substrate ENLYFWS,area with substrate ENLYFGS
MGESLFKGPRDYNPISSSICHLTNESDGHTTSLYGIGFGPFIITNKHLFRRNNGTLVVQSLHGVFKCKDTTTLQQHLVDGRDMIIIRMPKDFPPFPQKLKFREPQREERICLVTTNFQTKSMSSMVSDTSCTFPSGDGIFWKHWIQTKDGQCGSPLVSTRDGFIVGIHSASNFTNTNNYFTSVPKNFMELLTNQEAQQWVSGWRLNADSVLWGGHKVFMVKPEEPFQPVKEATQL [V67C],0.0424,0.0563,0.0814,0.0608,0.0571,0.0603,0.0692,0.0692,0.0654,0.0585,0.0601,0.0619,0.0586,,,,,
MGESLFKGPRDYNPISSSICHLTNESDGHTTSLYGIGFGPFIITNKHLFRRDNGTLVVQSLHGVFKVKDTTTLQQHLVDGRDMIIIRMPKDFPPFPQKLKFREPQREERICLVTTNFQTKSMSSMVSDTSCTFPSGDGIFWKHWIQTKDGQCGSPLVSTRDGFIVGIHSASNFTNTNNYFTSVPKNFMELLTNQEAQQWVSGWRLNADSVLWGGHKVFMVKPEEPFQPVKEATQL [N52D],0.0558,,0.0723,0.0707,,0.0546,0.0577,0.0668,0.065,0.0588,0.0498,0.0747,0.0584,0.0485,0.0877,0.0429,,
MGESLFKGPRDYNPISSSICHLTNESDGHTTSLYGIGFGPFIITNKHLFRRKNGTLVVQSLHGVFKVKDTTTLQQHLVDGRDMIIIRMPKDFPPFPQKLKFREPQREERICLVTTNFQTKSMSSMVSDTSCTFPSGDGIFWKHWIQTKDGQCGSPLVSTRDGFIVGIHSASNFTNTNNYFTSVPKNFMELLTNQEAQQWVSGWRLNADSVLWGGHKVFMVKPEEPFQPVKEATQL [N52K],0.0616,,0.0578,0.0636,,0.0623,0.0514,0.0571,0.0732,0.059,0.0627,,,,0.0675,,0.0666,
MGESLFKGPRDYNPISSSICHLTNESDGHTTSLYGIGFGPFIITNKHLFRRNNGTLVVQSLHGVFKVKDTTTLQQHLVDGRDMIIIRMPKDFPPFPQKLHFREPQREERICLVTTNFQTKSMSSMVSDTSCTFPSGDGIFWKHWIQTKDGQCGSPLVSTRDGFIVGIHSASNFTNTNNYFTSVPKNFMELLTNQEAQQWVSGWRLNADSVLWGGHKVFMVKPEEPFQPVKEATQL [K100H],0.0525,0.0611,,0.0644,0.0574,0.0575,0.0692,0.0578,0.0272,0.0651,0.0671,0.0701,0.0592,0.0123,,,0.0534,
MGESLFKGPRDYNPISSSICHLTNESDGHTTSLYGIGFGPFIITNKHLFRRNNGTLVVQSLHGVFKVKDTTTLQQHLVDGRDMIIIRMPKDFPPFPQKPKFREPQREERICLVTTNFQTKSMSSMVSDTSCTFPSGDGIFWKHWIQTKDGQCGSPLVSTRDGFIVGIHSASNFTNTNNYFTSVPKNFMELLTNQEAQQWVSGWRLNADSVLWGGHKVFMVKPEEPFQPVKEATQL [L99P],0.0551,0.0533,0.0698,0.0541,,0.0483,0.0752,0.0644,0.0692,0.0609,0.0566,0.0541,0.0534,0.0663,0.0628,0.0578,,
MGESLFKGPRDYNPISSSICHLTNESDGHTTSLYGIGFGPFIITNKHLFRRNNGTLVVQSLHGVFKVKDTTTLQQHLVDGRDMIIIRMPKQFPPFPQKLKFREPQREERICLVTTNFQTKSMSSMVSDTSCTFPSGDGIFWKHWIQTKDGQCGSPLVSTRDGFIVGIHSASNFTNTNNYFTSVPKNFMELLTNQEAQQWVSGWRLNADSVLWGGHKVFMVKPEEPFQPVKEATQL [D91Q],0.0567,,0.0656,0.0615,,0.0534,,0.0562,,0.0684,,0.0663,,,,,,
MGESLFKGPRDYNPISSSICHLTNESDGHTTSLYGIGFGPFIITNKHLFRRNNGTLVVQSLHGVFKVKDTTTLQQHLVDGKDMIIIRMPKDFPPFPQKLKFREPQREERICLVTTNFQTKSMSSMVSDTSCTFPSGDGIFWKHWIQTKDGQCGSPLVSTRDGFIVGIHSASNFTNTNNYFTSVPKNFMELLTNQEAQQWVSGWRLNADSVLWGGHKVFMVKPEEPFQPVKEATQL [R81K],0.0504,,,,,0.0729,,,0.0709,0.0652,,,,0.0625,0.0461,0.0543,0.0619,0.0594
MGESLFKGPRDYNPISSSICHLTNESDGHTTSLYGIGFGPFIITNKHLFRRNNGTLVVQSLHGVFKVKNTTTLQQHLVDGRDMIIIRMPKDFPPFPQKLKFREPQREERICLVTTNFQTKSMSSMVSDTSCTFPSGDGIFWKHWIQTKDGQCGSPLVSTRDGFIVGIHSASNFTNTNNYFTSVPKNFMELLTNQEAQQWVSGWRLNADSVLWGGHKVFMVKPEEPFQPVKEATQL [D69N],0.0527,0.0515,,0.0585,0.0573,0.0672,,,,0.06,,,,,,0.0445,,
MGESLFKGPRDYNPISSSICHLTNESDGHTTSLYGIGFGPTIITNKHLFRRNNGTLVVQSLHGVFKVKDTTTLQQHLVDGRDMIIIRMPKDFPPFPQKLKFREPQREERICLVTTNFQTKSMSSMVSDTSCTFPSGDGIFWKHWIQTKDGQCGSPLVSTRDGFIVGIHSASNFTNTNNYFTSVPKNFMELLTNQEAQQWVSGWRLNADSVLWGGHKVFMVKPEEPFQPVKEATQL [F41T],0.0577,0.0665,,0.106,0.0595,0.0547,,0.0586,0.0587,0.0567,,0.0509,,,0.0549,,0.0468,
MGESLFKGPRDYNPISSSICHLTNESDGHTTSLYGIGFGPFIITNKHLFRRNNGTEVVQSLHGVFKVKDTTTLQQHLVDGRDMIIIRMPKDFPPFPQKLKFREPQREERICLVTTNFQTKSMSSMVSDTSCTFPSGDGIFWKHWIQTKDGQCGSPLVSTRDGFIVGIHSASNFTNTNNYFTSVPKNFMELLTNQEAQQWVSGWRLNADSVLWGGHKVFMVKPEEPFQPVKEATQL [L56E],0.0471,0.0424,0.046,0.0474,0.0428,0.0484,0.0464,0.0581,0.0442,0.0507,0.0531,,0.0204,,,,,0.0479

# Reference: the supplement of paper PMC12217912
